Values marked as one replicate rest on one cluster of the flow cell; about a third of the high ones do not repeat.
Tested on: ATP
Test: switch fluorescence ratio, 500 uM ATP over buffer (Cy3 cluster intensity, sum of 5 cycles each) (fold (ratio)); higher = stronger signal-on switching upon ATP binding; sequences stand for … in TCGTCGGCAGCGTCAGATGTGTATAAGAGACAGTTTTTTTTTTTTTTTTTTTTTTTTT…TC
Details: aptamer strand: ATP DNA aptamer (quencher-CACCTGGGGGAGTATTGCGGAGGAAGG + anchor), 100 nM annealed; ATP concentration: 500 uM; one replicate
Method in brief: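 Switching-strand clusters labelled with Cy3 on a modified Illumina MiSeq flow-cell were annealed to 100 nM quencher-labelled ATP aptamer, imaged in selection buffer, and re-imaged after 15 min with 500 uM ATP at 22 °C. This was done over five cycles with NaOH stripping and re-annealing in between. The fluorescence ratio is summed target-cycle over summed buffer-cycle Cy3 intensity per cluster, averaged per switch-domain sequence, excluding clusters outside 100-1000 RFU.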
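Further: ATP exposure 15 min at 22 °C before imaging.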

Sequence | switch fluorescence ratio
GGTCAGCCTG | 1.02
TGTGGGCGCT | 1.01
TGGGCAGTAA | 1.09
GGAGTGCCTA | 0.998
GATACAGGTT | 0.994
TATTGGTTGA | 0.977
GTTAAACGAT | 0.982
CGGCGTGTTA | 1
AGTGACCCAC | 1.16
ATTACGCAAA | 2.43
GTGGCTTGCG | 0.981
TTAATACTAG | 1.17
TTTAACTTCT | 1.09
ACCCTTGGCT | 0.996
ATTCCGTATG | 1.06
CGGTAGATTC | 1.02
TCATGCGAAT | 1.04
ATCCTAAGTG | 1.01
ACCCAAGAGT | 1.03
AGCAGTCAAT | 1.07
GAGGCATCTA | 0.995
GCTGAATCGG | 0.998
GTGATCTG | 1.02

Sequence | switch fluorescence ratio
TTGTTGCCAT | 1.05
AGAGCCTTTT | 0.971
GGCATCATAA | 1.01
GCGTAATCAC | 2.71
CATGTGTCCT | 0.934
AGAGTGTGGT | 0.954
AAAGGTGATT | 0.956
TTAAGAACTG | 0.976
AGTTGGTATG | 0.948
CAACTCGGAC | 1.06
CTGCAATTT | 2.56
AAAGCGGCGG | 0.972
TGTTCAGTTG | 1.04
GCATTGTAAG | 1.01
CTTGTCGTTG | 0.98
ACGTTGCTGT | 1.12
CACTCTAGAG | 0.988
GAACGATGTA | 0.992
GCGCTCGTCA | 1.02
AAACGACGCC | 1.14
TCTTCGGACT | 0.995
AGGACAACGC | 0.974
GAATCCGGCG | 1.07

Sequence | switch fluorescence ratio
TTTGACTT | 1.05
CGTCACTGAA | 1.03
CGCAGAGGAT | 1.02
AGGGTTGCAA | 1.01
CGCTTTAGCT | 0.983
GTATATGGTT | 0.973
AATGTATCGC | 1.01
AGATTCACCT | 1.16
TTCTTGCCCT | 1.02
CATCGGACAG | 1.06
GAGATTCTGA | 1.06
TAAAACGGAC | 1.18
CAGCTGATAG | 1.04
TGCTCCATGG | 1.01
GTCACCCGGT | 1.2
GACGGGTAGG | 0.995
CATTGCAACA | 1.05
AAACCCACCT | 1.31
TTACTGACGA | 1.47
TAAAACACTT | 1.02
GGTTGTCCA | 0.951
GGGAAAACT | 1.13
GTTCTTGGTT | 0.978

Sequence | switch fluorescence ratio
TCGGTTTATT | 1.08
TAATTGAGTT | 0.979
GCGACTCCGA | 1.72
AAATCTCTCA | 0.996
CCATGTGTTA | 1
TTTGGCACAG | 1
TGTGATGTG | 0.997
CTGAGGTTGA | 1.02
TTCTAACTGC | 1.06
ACTACGGC | 1.22
GTTTTAGATG | 0.983
TGCATTGATG | 1
TTTTCTCCTA | 0.928
GGTATACGCG | 0.996
TGTTAATGAC | 1.04
TAGCGAGTGA | 1.03
GGATTGCCGC | 1.07
AGTATAAGGC | 0.982
CTAGGACGAG | 0.996
CTAGTATTCG | 0.997
TCGATGGTGC | 0.974
TCGGGGTTC | 0.997
TTCTGAAACC | 1.07

Sequence | switch fluorescence ratio
GAAATAATAC | 1.09
TACTCGACTT | 1.11
AGCGCATTGG | 1.11
CTAGATCGGC | 0.979
GTACTTCCTA | 1.08
TAAGGCCATA | 1.01
TTCTGCGCGC | 1.01
CACTTTTTTG | 0.983
TGGCCAAAAG | 1
CAGTGATGTG | 0.924
TTATGGTCAA | 0.966
TCCTGTCGCG | 1.21
ACAGGTCAT | 0.997
GTGAGCGTCT | 1.03
GCCGCTATCT | 1.05
CGGAGGACCT | 1.05
CGAAGGCATC | 1.86
GGAACAGGGG | 1.06
CGGCACTCTA | 1.04
CGTGTGGAAT | 1.02
AGCATGCGGC | 1.06
CGCCTTAGTA | 1.01
GCTACGAGGT | 1.07

Sequence | switch fluorescence ratio
TTATGTGGCA | 0.988
TGGCACACGA | 1.04
CAAGGCACAC | 1.37
AGGCACGATG | 0.97
AGAAAGTACA | 1.19
TACGCGTGTT | 1.01
TAGGGCTTTG | 1.01
GGTTGGACTC | 0.979
CAGTTTGAAT | 1
AAAAGGCCCG | 1
GGACTGTTTT | 0.965
AGTAACGCAA | 4.36
GTATGATCCG | 1.18
TTGCTGCTAG | 1.06
GACTCTTCCT | 1.75
TGCGGTAATA | 0.971
TGCCGCTCGG | 0.992
TGATACGTAG | 1.02
AGCCGTTCGA | 1.02
TCTCATAG | 1.01
TTTATTTAAG | 0.979
GTACTTGGAC | 1.02
AAGAATAGG | 0.931

Sequence | switch fluorescence ratio
TAGTAATAAG | 0.962
TGAGGCCCGG | 1.01
AGGCCCTGAA | 0.999
CGATCCGGTC | 1
GGCTGCACTG | 1.02
AGTAGTTAAC | 0.977
GGCAGGTGCG | 1.04
TGTTTACGCA | 1.57
ACGCTGCGTA | 1.03
ATAACCGGCC | 2.89
GGAATAAAGA | 1.05
ATTTTGGAAG | 0.956
GTCGAGAATA | 1.01
TATGATAAGT | 0.945
TCTAAAACGT | 1.02
ATTATAAGTC | 1.04
GTTCAGGTGT | 2.53
TGGCCAGTAG | 0.982
AGGGAAGCAC | 1.16

— the supplement of paper PMC10126150
